Results on 20 sequences are retold here after paper PMC5892938.

The other results are listed elsewhere or left out. At the low end of the ranking, values are background and their order means little.

The test concerns the target GST-SBP-SLBP (stem-loop binding protein) (UniProt Q14493). Kind of test: targeted RNA Bind-n-Seq.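 Also: DESeq read counts versus GST-SBP nonspecific binding control pulldown.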 As to conditions: RBNS binding buffer: 25 mM Tris pH 7.5, 150 mM KCl, 3 mM MgCl2, 0.1% Tween, 0.5 mg/mL BSA, 1 mM DTT; 27 nM protein, 750 pM RNA pool; temperature not stated; high values mean tight binding.
Take “GGUCACGUCUCAAUCAACUCCCUAGAGGGGGGGAAAACCCCUUUACCCUCAAUAUCAACAGCUCGCAGUCAAG”: the binding signal (log2 fold change) is -0.00708.

Turning to “GGUCACGUCUCAAUCAACUCCCUCGAGGGGGGGAAAACCCCUUUACCCUCACACUCAACAGCUCGCAGUCAAG”, the binding signal (log2 fold change) is -0.451.

Take “GGUCACGUCUCAAUCAACUCUAGUCCAGGAGUUUCCUCCUGUUUAUUCAACAGCUCGCAGUCAAG”: the binding signal (log2 fold change) was -0.103.

Regarding “GGUCACGUCUCAAUCAACUCUUCUCCAGGAGUUUUCUCCUGCUAACUCAACAGCUCGCAGUCAAG”, the binding signal (log2 fold change) was -0.00318.

As to “GGUCACGUCUCAAUCAACUCAAGGUCAGGAGUUUUCUCCUGUAAUUUCAACAGCUCGCAGUCAAG”, the binding signal (log2 fold change) is -0.00154.

As for “GGUCACGUCUCAAUCAACUCUACAGAGGGGGGGAAAACCCCUUUACCCUCCAACUCAACAGCUCGCAGUCAAG”, the binding signal (log2 fold change) was determined as 0.294.

Turning to “GGUCACGUCUCAAUCAACUCUUUCCCAGGAGUUUUCUCCUGUAUUCUCAACAGCUCGCAGUCAAG”, the binding signal (log2 fold change) was 0.213.

Turning to “GGUCACGUCUCAAUCAACUCAUAAGAGGGGGGGAAAACCCCUUUGCCCUCCAUAUCAACAGCUCGCAGUCAAG”, the binding signal (log2 fold change) is -0.421.

As for “GGUCACGUCUCAAUCAACUCUUUCCCAGGAGUUUUCUCCUGUAAUCUCAACAGCUCGCAGUCAAG”, the binding signal (log2 fold change) was -0.139.

For “GGUCACGUCUCAAUCAACUCAAUCUCCAGGGAAAUCCCUGGCAAAGUCAACAGCUCGCAGUCAAG”, the binding signal (log2 fold change) was -0.125.

As for “GGUCACGUCUCAAUCAACUCAUUCCCAGGAGUUUUCUCCUGUAUUCUCAACAGCUCGCAGUCAAG”, the binding signal (log2 fold change) was -0.0238.

Turning to “GGUCACGUCUCAAUCAACUCAUCCUCCAGGGAAACCCCUGGCAUUCUCAACAGCUCGCAGUCAAG”, the binding signal (log2 fold change) stood at 0.0544.

With “GGUCACGUCUCAAUCAACUCUUACGAGGGGGGGAAAACCCCUUUACCCUCCAUAUCAACAGCUCGCAGUCAAG”, the binding signal (log2 fold change) is -0.0754.

Turning to “GGUCACGUCUCAAUCAACUCUUUUCCAGGAGUUUUCUCCUGUUUACUCAACAGCUCGCAGUCAAG”, the binding signal (log2 fold change) is -0.108.

Take “GGUCACGUCUCAAUCAACUCUUUCUCCAGGGAAACCCCUGGUAUUUUCAACAGCUCGCAGUCAAG”: the binding signal (log2 fold change) was -0.279.

In the case of “GGUCACGUCUCAAUCAACUCAUUAGAGGGGGGGAAAACCCCUUUGCCCUCAACAUCAACAGCUCGCAGUCAAG”, the binding signal (log2 fold change) was 0.0354.

As for “GGUCACGUCUCAAUCAACUCAUUCUCCAGGGAAACCCCUGGCUAAUUCAACAGCUCGCAGUCAAG”, the binding signal (log2 fold change) worked out at 0.0376.

On to “GGUCACGUCUCAAUCAACUCUUCUUCAGGAGUUUUCUCCUGCUUAUUCAACAGCUCGCAGUCAAG”, for which the binding signal (log2 fold change) is 0.0161.

“GGUCACGUCUCAAUCAACUCUUUUUCCAGGGAAAGCCCUGGUUAUCUCAACAGCUCGCAGUCAAG”: the binding signal (log2 fold change) stood at 0.274.

“GGUCACGUCUCAAUCAACUCGCACGAGGGGGGGAAAACCCCUUUACCCUCAAUAUCAACAGCUCGCAGUCAAG”: the binding signal (log2 fold change) was -0.23.
